From article PMC4336329 (PLoS ONE, 2015)
Out of some 310,000 compounds screened, about 2,200 (0.71%) showed an effect of 50% or more. The effect is printed as a negative number. The list shows a part of the results.

Target: human ether-à-go-go-related gene (hERG) potassium channel (human, UniProt Q12809)
Test: primary screen, population patch clamp on CHO cells stably expressing hERG

Chain of human ether-à-go-go-related gene (hERG) potassium channel (Q12809 whole entry, looked up): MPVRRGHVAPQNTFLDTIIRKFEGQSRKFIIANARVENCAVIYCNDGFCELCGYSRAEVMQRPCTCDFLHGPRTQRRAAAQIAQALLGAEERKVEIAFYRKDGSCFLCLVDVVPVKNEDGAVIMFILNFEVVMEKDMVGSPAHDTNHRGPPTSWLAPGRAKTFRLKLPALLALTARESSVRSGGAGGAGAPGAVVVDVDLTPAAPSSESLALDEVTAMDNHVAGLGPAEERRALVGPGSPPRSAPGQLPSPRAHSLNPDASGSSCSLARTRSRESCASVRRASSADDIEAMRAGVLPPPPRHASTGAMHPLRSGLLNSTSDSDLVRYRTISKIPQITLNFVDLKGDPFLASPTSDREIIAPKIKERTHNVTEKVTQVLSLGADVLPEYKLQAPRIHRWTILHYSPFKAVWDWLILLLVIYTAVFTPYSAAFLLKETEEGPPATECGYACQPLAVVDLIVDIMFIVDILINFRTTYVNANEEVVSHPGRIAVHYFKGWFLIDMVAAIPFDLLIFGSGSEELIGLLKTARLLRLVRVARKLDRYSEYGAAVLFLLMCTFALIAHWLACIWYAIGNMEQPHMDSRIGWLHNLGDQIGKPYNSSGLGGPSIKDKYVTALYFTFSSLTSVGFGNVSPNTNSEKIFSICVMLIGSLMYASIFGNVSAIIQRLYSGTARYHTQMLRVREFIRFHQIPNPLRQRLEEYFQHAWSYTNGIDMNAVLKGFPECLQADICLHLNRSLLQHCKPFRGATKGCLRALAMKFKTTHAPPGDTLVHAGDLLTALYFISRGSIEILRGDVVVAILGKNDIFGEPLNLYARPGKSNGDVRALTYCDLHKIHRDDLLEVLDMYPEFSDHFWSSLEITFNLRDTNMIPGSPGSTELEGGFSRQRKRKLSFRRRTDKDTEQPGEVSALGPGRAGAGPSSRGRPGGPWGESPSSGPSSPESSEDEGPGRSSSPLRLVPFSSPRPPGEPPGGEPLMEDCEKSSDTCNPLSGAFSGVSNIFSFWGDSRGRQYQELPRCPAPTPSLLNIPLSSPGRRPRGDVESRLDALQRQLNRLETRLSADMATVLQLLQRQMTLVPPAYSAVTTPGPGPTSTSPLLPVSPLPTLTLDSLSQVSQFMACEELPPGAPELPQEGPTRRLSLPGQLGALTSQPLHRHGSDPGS

Row | Compound | hERG current change (%, negative = inhibition) at 1uM [%]
1 | CCOc1ccccc1C(=O)NCC(=O)OCC(=O)NCCc1ccc(S(N)(=O)=O)cc1 | 15.9
2 | CCCN1CCN(CCCNC(=S)Nc2ccc(OC)cc2)CC1 | 7.04
3 | COc1ccc(N2CCN(C(=O)c3ccc4c(=O)n(CC5CCCO5)c(=O)[nH]c4c3)CC2)cc1 (stereo not drawn) | 15.4
4 | CSc1ccccc1C(=O)N1CCN(c2ncccn2)CC1 | 9.78
5 | CCCn1c(CN(C)Cc2ccccc2)nc2c1c(=O)n(C)c(=O)n2C | 4.79
6 | CCOC(=O)CNC(=O)CSc1nc(-c2ccc(OC)cc2)ns1 | 2.37
7 | Cl.NC1CCN(c2cccc(Cl)n2)CC1 | 1.81
8 | Oc1ccc(C[C@@H]2CNCCN2CCc2cccc(F)c2)cc1 | 2.13
9 | Cc1cc2c([nH]c3ccccc32)c(C)[nH+]1.[Cl-] | 3.43
10 | CC1=C(C(=O)Nc2ccccc2C(=O)N2CCC(C)CC2)SCCO1 | 7.58
11 | COCCNc1nnc(SCC(=O)Nc2cc(C)on2)s1 | 8.08
12 | Cc1cc(Oc2ncccc2[N+](=O)[O-])c2cc(Cl)ccc2n1 | 1.95
13 | Cc1ccc(CN2C(=O)C(=O)N(CC(N)=O)C2=O)cc1 | 13.5
14 | O=C(Nc1ccc2c(c1)OCO2)C1CC(=O)N(c2ccc3c(c2)OCCO3)C1 (stereo not drawn) | 9.95
15 | O=C(CSC1=NCCS1)c1ccc(Cl)cc1 | 9.33
16 | CSc1ccc(Cl)c(C(=O)OCC(=O)N2CCN(C(=O)c3ccco3)CC2)c1 | -3.76
17 | CCN(Cc1ccncc1)C(=S)NCc1ccccc1 | 1.83
18 | O=C(N/C(=C\c1ccc([N+](=O)[O-])cc1)C(=O)N1CCOCC1)c1ccco1 | -57.1
19 | O=C(CSc1nnc2c(Cl)cc(Cl)cn12)N1CCOCC1 | 1.14
20 | CC1=C2C(=O)C3C(CC=C4CC(OC5OC(O)C(O)C(O)C5CO)CCC43C)C2CCC12OC1CC(C)CNC1C2C (stereo not drawn) | -2.14
21 | CCOC(=O)C(C(=O)N(C)C)c1ncc(C(F)(F)F)cc1Cl (stereo not drawn) | 14.7
22 | CCCc1cc(Nc2ccccc2C)n2ncnc2n1 | 9.22
23 | COC(=O)c1cccc(N(C(=O)c2cnccn2)C(C(=O)NCc2ccccc2)c2ccco2)c1 (stereo not drawn) | 14.1
24 | CCCCNC(=O)COC(=O)CCC(=O)c1ccc(Cl)cc1 | 13.1

Row | Compound | hERG current change (%, negative = inhibition) at 1uM [%]
25 | Cc1ccc(NC(=O)C[n+]2ccccc2)cc1C.[Cl-] | 9.17
26 | Cc1ccccc1Nc1c(-c2ccccn2)nc2ccccn12 | 10.7
27 | Fc1ccc(NC(=S)Nc2cccnc2)c(Cl)c1 | 7.06
28 | Cc1ccc(-n2c(C)nc3ccccc3c2=O)cc1C | -40.6
29 | Cn1ncc(Br)c1NC(=O)Nc1ccc(OC(F)(F)F)cc1 | 10.8
30 | O=C(COc1ccccc1/C=C1\SC(=O)NC1=O)Nc1ccc(F)cc1 | 3.48
31 | O=C(N/N=C/c1cccc(Oc2ccccc2)c1)c1ccncc1 | 11
32 | Cc1cc(Cl)ccc1Oc1ncc(CN2CCN(c3ccccc3)CC2)s1 | 7.93
33 | Cc1cccc(Nc2ccccc2)c1 | -4.07
34 | CCOC(=O)c1cnc2c(cnn2C)c1NCc1ccc(OC)cc1 | 12.1
35 | COc1ccccc1N1CCN(C2CCCN(C(=O)c3oc(C)cc3C)C2)CC1 (stereo not drawn) | -7.67
36 | O=C(Nc1cccnc1)c1c(F)cccc1F | 14.3
37 | COc1cc(OC)cc(-c2oc(=O)c3cc(OC)c(OC)cc3c2/C=C/c2ccc(F)cc2)c1 | 1.62
38 | CCCn1c(SCC(=O)N2CCCC2)nc2c1c(=O)n(C)c(=O)n2C | -9.97
39 | CN1CCN(/N=C/c2ccc(N(c3ccccc3)c3ccccc3)cc2)CC1.Cl | 10.3
40 | Cn1c(O)c(C=NC2CC(C)(C)NC(C)(C)C2)c(=O)n(C)c1=O | 6.98
41 | CCSc1nc2nn(-c3ccccc3)c(=O)c-2c2n1CCCCC2 | 6.48
42 | CC(C)(C)NC(=O)c1cc([N+](=O)[O-])ccc1N1CCCCC1 | 11.8
43 | O=C(c1noc2c1CCCC2)N1CCN(c2ccc(F)cc2)CC1 | 20
44 | COc1cc(N)ccc1NC(=O)c1cccs1 | -2.4
45 | Cn1c(=NC(=O)COc2ccccc2)sc2ccccc21 | 7.4
46 | Nc1ccccc1SCc1c(Cl)cccc1Cl | 4.76
47 | Cc1ccc(NC(=O)c2ccc3c(c2)OCCO3)cc1 | 16.8
48 | Nc1ncc(Br)cc1S(=O)(=O)NCCC(=O)NCCc1ccccc1 | 9.8

Row | Compound | hERG current change (%, negative = inhibition) at 1uM [%]
49 | O=C(Cc1ccccc1)NNC(=S)Nc1ccccc1 | 10.2
50 | COC(=O)c1cc(-c2ccc(S(=O)(=O)N3CCCC3)cc2)c(C(F)(F)F)s1 | 15.8
51 | Cc1ccc(-c2ccc(=O)n(CC(=O)NCCN(CC(C)C)CC(C)C)n2)cc1 | 12.1
52 | CCOC(=O)c1ccc(NC(=O)C2CCCN(S(=O)(=O)c3cnc[nH]3)C2)cc1 (stereo not drawn) | 9.7
53 | Cc1nc2ccc([N+](=O)[O-])cc2nc1C | 0.886
54 | CCOC(=O)c1nc(S(C)(=O)=O)ncc1N1CCOCC1 | 12.1
55 | Cc1ccc(C)c(SCC(=O)c2ccc[nH]2)c1 | 8.5
56 | COc1cc(C=O)ccc1OCc1ccccc1Br | 5.93
57 | CCOc1cc(NS(C)(=O)=O)c(OCC)cc1NC(=O)c1cccs1 | 5.57
58 | CC(=O)C1C(c2ccc(Cl)cc2)c2c(noc2C)CC1(C)O (stereo not drawn) | 12.7
59 | COc1ccc(Cl)cc1C(=O)OCC(=O)NC(=O)c1cccn1C | -3.66
60 | COC(=O)c1ccc(/C=N\NC(=O)CC(=O)NCCc2ccccc2)cc1 | 10.6
61 | O=C(ONc1ccc(N=NC(=O)c2ccccc2O)cc1)c1ccccc1 | 12.8
62 | NNC(=O)c1[nH]c2ccc([N+](=O)[O-])cc2c1-c1ccccc1 | 14.6
63 | Cc1cccc(OCCNC(=O)c2cncc(Br)c2)c1 | 6.79
64 | COc1ccc(Nc2nnc(SCC(=O)NC3CC3)s2)cc1 | 11.5
65 | NS(=O)(=O)c1ccc(NC(=O)COC(=O)C2(c3ccc(F)cc3)CCCC2)cc1 | 7.18
66 | Cc1ccc(-c2nn(-c3ccccc3)cc2C2SCC(=O)N2Cc2ccccc2)o1 (stereo not drawn) | 13.1
67 | CCN1CCN(C(=O)c2nn(-c3ccccc3)c(=O)c3ccccc23)CC1 | 5.91
68 | O=C(c1ccco1)N1CCN(C(c2cccs2)c2nnnn2C2CCCCC2)CC1 (stereo not drawn) | -5.75
69 | CC(NC(=O)CCC(=O)N1CCCCCC1)c1ccccc1 (stereo not drawn) | 16.8
70 | Cc1c2cnn(CC(=O)N3CCOCC3)c(=O)c2c(C)n1Cc1ccccc1F | 9.92
71 | CC(=O)Nc1ccc(NC(=O)COC(=O)c2n[nH]c3ccccc23)cc1 | 3.81
72 | O=C(O)CCNS(=O)(=O)c1ccc2c(c1)CCCC2 | 4.03

Row | Compound | hERG current change (%, negative = inhibition) at 1uM [%]
73 | Cc1cc(Cl)ccc1OCC(=O)Nc1cccc(S(=O)(=O)N2CCCC2)c1 | 3.55
74 | NC(=O)c1ccsc1NC(=O)c1ccco1 | 1.36
75 | Cc1nc2ccc(NC(=O)N3CCN(c4ccccn4)CC3)cc2s1 | 7.75
76 | COC(=O)c1ccc2ccn(CC(=O)NC3CCCCC3)c2c1 | 1.65
77 | O=C(O)c1cc(Cl)ccc1-c1ccc(/C=C/c2cc(C(F)(F)F)[nH]c(=O)n2)o1 | 7.85
78 | CCC(=O)N(Cc1cc(=O)[nH]c2ccccc12)c1ccccc1OC | 12.3
79 | CCN1CCN(c2nc(-c3ccccc3Cl)nc3ccccc23)CC1.Cl | -39.1
80 | CSc1ccc(CN(C)Cc2cc(=O)oc3c(C)c(C)ccc23)cc1 | 5.44
81 | O=C(NC1CCC(C(=O)O)CC1)OCc1ccccc1 (stereo not drawn) | 12.5
82 | O=C(CCNS(=O)(=O)c1ccc(Cl)cc1)OCC(=O)c1ccc[nH]1 | 3.99
83 | CCOC(=O)c1c(O)c2c(n(Cc3ccco3)c1=O)CCCC2 | 19.7
84 | COc1ccc(/C=C(/NC(=O)c2ccccc2Cl)C(=O)O)cc1 | 8.61
85 | CCOc1ccccc1OCC(=O)Nc1ccc(Cl)cc1Cl | 14.1
86 | COc1cc(NC(=O)c2ccc(C)cc2C)ccc1NC(=O)c1cccs1 | 3.03
87 | CN(C)C(=O)c1nc(C#N)c(N(C)C)o1 | 11
88 | Cc1ccccc1S(=O)(=O)Cc1ccc(C(=O)NCCN(CC(C)C)CC(C)C)o1 | 0.83
89 | Cc1ccc(C(=O)Nc2ccc3c(c2)CCC3)cc1 | 16
90 | CCc1cc(=O)oc2cc(C)cc(OCC(=O)NCc3cccnc3)c12 | -0.591
91 | CCc1nc(NCC2CCCO2)c2oc3ccccc3c2n1.Cl (stereo not drawn) | -1.27
92 | COc1cccc(/C=C(/C(=O)OCC(=O)NC2CCCC(C)C2C)c2ccccc2)c1 (stereo not drawn) | 12.5
93 | Cc1cc(C)cc(NC(=S)N2CCC(NC(=O)C3CC3)CC2)c1 | 12
